Assay results published in the supplement of paper PMC9446081.
Screen size: about 39,000 compounds; about 220 (0.56%) showed activity. Some of the results follow.

Each molecule was assayed on Escherichia coli K-12 BW25113 (assay: relative growth (OD600 normalised to plate interquartile mean) (fraction); higher = less growth inhibition, active = 0.2 or less). Conditions: 50 µM; LB; incubation time: overnight (16-24 h).
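Also: static incubation at 37 °C against the wild-type strain, values averaged over two biological replicates.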

Structure (SMILES)	relative growth
C[C@H](CO)N1C[C@H](C)[C@H](CN(C)Cc2ccccc2)OCCCC[C@H](C)Oc2ccc(NC(=O)C3CCCCC3)cc2C1=O	inactive: 1.01
COCC#Cc1ccc2c(c1)O[C@@H](CN(C)S(=O)(=O)c1ccc(F)cc1)[C@H](C)CN([C@H](C)CO)S2(=O)=O	inactive: 1.01
C[C@@H]1CN([C@@H](C)CO)C(=O)c2cccc(NS(=O)(=O)c3ccc(Cl)cc3)c2O[C@@H]1CN(C)Cc1ccc(Oc2ccccc2)cc1	inactive: 1.03
CCC(=O)NCc1nn(C)c2c1COCC2	inactive: 1.02
C[C@@H]1CN([C@H](C)CO)C(=O)c2cc(NC(=O)Nc3cccc4ccccc34)ccc2O[C@H]1CN(C)C(=O)Nc1ccccc1	inactive: 0.982
COc1ccc(S(=O)(=O)Nc2ccc3c(c2)C(=O)N([C@H](C)CO)C[C@@H](C)[C@@H](CN(C)C(=O)CCC(F)(F)F)OCCCC[C@@H](C)O3)cc1	inactive: 1
C[C@H]1CN([C@@H](C)CO)C(=O)c2cc(C#CCc3ccccc3)cnc2O[C@H]1CN(C)CC1CCOCC1	inactive: 1
CNCc1cc(C)nn1C	inactive: 0.989
C#CCSC1=N[C@@]2(COCc3ccc(OC)cc3)Oc3ccccc3[C@H]([C@H]2CO[Si](C)(C)C(C)(C)C)N1C(=O)c1ccccc1	inactive: 0.999
NCCCNCCCCNCCCN	inactive: 1.11
COc1ccc(-c2oc3cc(OC)c(OC)c(OC)c3c(=O)c2OC)cc1	inactive: 1.12
COc1ccc([Si](C)(C)[C@H]2[C@H](CC(=O)N3Cc4ccccc4C[C@H]3CO)O[C@@]3(C(=O)N(Cc4cccc(I)c4)c4ccccc43)[C@@H]2C)cc1	inactive: 1.03
COC(=O)C1C(O)CCC2CN3CCc4c([nH]c5ccccc45)C3CC21 (stereo unspecified)	inactive: 1
C[C@@H]1CCCCO[C@@H](CN(C)CC2CCCCC2)[C@H](C)CN([C@H](C)CO)C(=O)c2cc(NC(=O)NC3CCCCC3)ccc2O1	inactive: 0.989
C[C@@H]1CN([C@@H](C)CO)C(=O)c2cc(NC(=O)Nc3ccc(F)cc3)ccc2O[C@@H]1CN(C)Cc1ccc(C(F)(F)F)cc1	inactive: 0.985
C[C@@H]1CN([C@@H](C)CO)C(=O)c2cc(NS(=O)(=O)c3ccc(Cl)cc3)ccc2O[C@@H]1CN(C)C(=O)Nc1cccc2ccccc12	inactive: 1.03
C[C@@H]1CN([C@H](C)CO)C(=O)c2cccc(NC(=O)C3CC3)c2O[C@@H]1CN(C)S(=O)(=O)c1cn(C)cn1	inactive: 0.997
Nc1ccc2c(c1)nc(CO)n2CCO	inactive: 0.981
Cc1ccc(S(=O)(=O)N(C)C[C@@H]2Oc3c(NS(=O)(=O)c4ccc(F)cc4)cccc3C(=O)N([C@H](C)CO)C[C@@H]2C)cc1	inactive: 1.01
OCc1cccnc1	inactive: 0.957
Cc1ccc(S(=O)(=O)N(C)C[C@H]2Oc3ncc(-c4ccncc4)cc3C(=O)N([C@H](C)CO)C[C@H]2C)cc1	inactive: 1.02

Structure (SMILES)	relative growth
C[C@@H]1CCCCO[C@@H](CN(C)S(=O)(=O)c2ccccc2)[C@H](C)CN([C@H](C)CO)C(=O)c2cc(NS(=O)(=O)c3cn(C)cn3)ccc2O1	inactive: 1.02
O=C1N[C@H](Cc2c[nH]c3ccccc23)COC(=O)[C@H](Cc2ccc(F)cc2)CC=CC[C@@H]1CC(=O)N(CCO)Cc1ccccc1	inactive: 0.995
COc1ccc(NC(=O)N(C)C[C@H]2Oc3ccc(NC(=O)Nc4cccc5ccccc45)cc3C(=O)N([C@H](C)CO)C[C@@H]2C)cc1	inactive: 0.983
C[C@H](CO)N1C[C@H](C)[C@H](CN(C)Cc2ccc(Cl)c(Cl)c2)Oc2c(NC(=O)CCCCCC(=O)Nc3ccccc3N)cccc2C1=O	inactive: 0.951
Cc1ccc(-c2ccc3c(c2)O[C@@H](CN(C)C(=O)CN(C)C)[C@@H](C)CN([C@H](C)CO)S3(=O)=O)cc1	inactive: 1
Cc1noc(C)c1NC(=O)N(C)C[C@H]1Oc2ccc(NC(=O)Nc3ccc(C(F)(F)F)cc3)cc2C(=O)N([C@@H](C)CO)C[C@H]1C	inactive: 0.936
CC(=O)NCC(=O)OCC(=O)c1ccccc1	inactive: 0.982
CC[C@H]1OC(=O)[C@H](C)[C@@H](O[C@H]2C[C@@](C)(OC)[C@@H](O)[C@H](C)O2)[C@@H](C)[C@@H](O[C@H]2O[C@H](C)C[C@H](N(C)C)[C@H]2O)[C@](C)(O)C[C@@H](C)C(=O)[C@H](C)[C@@H](O)[C@]1(C)O	inactive: 0.375
CC1=CC(=O)C(C(C)C)=CC1=O	inactive: 0.97
Cc1noc(C)c1S(=O)(=O)N(C)C[C@@H]1OCCCC[C@H](C)Oc2ccc(N(C)C)cc2C(=O)N([C@H](C)CO)C[C@@H]1C	inactive: 0.969
C[C@@H]1CN([C@H](C)CO)C(=O)c2cc(NS(=O)(=O)c3cn(C)cn3)ccc2O[C@@H]1CN(C)S(=O)(=O)c1cccs1	inactive: 0.99
C[C@@H]1CCCCO[C@@H](CN(C)C(=O)NC2CCCCC2)[C@H](C)CN([C@@H](C)CO)C(=O)c2cc(NC(=O)CCCCCC(=O)Nc3ccccc3N)ccc2O1	inactive: 0.95
C[C@@H]1CCCCO[C@@H](CN(C)S(=O)(=O)c2ccc(Cl)cc2)[C@H](C)CN([C@H](C)CO)C(=O)c2cc(NS(=O)(=O)c3ccc(Cl)cc3)ccc2O1	inactive: 1.02
CCCCCC/C=C\CCCCCCCC(=O)O	inactive: 1
COCC#Cc1cnc2c(c1)C(=O)N([C@H](C)CO)C[C@H](C)[C@@H](CN(C)S(=O)(=O)c1ccccc1)O2	inactive: 1
COCC(=O)N1C[C@H](C)[C@H](OC)CN(C)C(=O)c2ccc(NC(=O)c3ccc(F)cc3)cc2OC[C@H]1C	inactive: 0.983
COc1ccccc1NC(=O)C[C@H]1CC[C@H]2[C@@H](COc3ccc(NS(C)(=O)=O)cc3C(=O)N2C)O1	inactive: 0.981
Cc1cc(CO)c(O)c(CO)c1	inactive: 1.01
Cc1ccc(S(=O)(=O)N(C)C[C@@H]2OCCCC[C@H](C)Oc3ccc(NS(C)(=O)=O)cc3C(=O)N([C@H](C)CO)C[C@H]2C)cc1	inactive: 1.03
C[C@H](CO)N1C[C@H](C)[C@H](CN(C)Cc2ccc(C(=O)O)cc2)Oc2c(NC(=O)c3ccc(-c4nccs4)cc3)cccc2C1=O	inactive: 1.02
Cc1ccc(S(=O)(=O)N(C)C[C@@H]2OCCCC[C@@H](C)Oc3ccc(NS(=O)(=O)c4ccc(Cl)cc4)cc3C(=O)N([C@@H](C)CO)C[C@@H]2C)cc1	inactive: 1.04

Structure (SMILES)	relative growth
COc1ccc([C@H]([C@H](Cc2ccccc2)OC(C)=O)N(C[C@H](/C=C/c2ccccc2)NC(=O)C(Cl)(Cl)Cl)[C@@H](Cc2ccccc2)C(OC)OC)cc1	inactive: 1.04
CN([NH2+][O-])C(=O)N[C@@H]1[C@@H](O)[C@H](O)[C@@H](CO)O[C@@H]1O	inactive: 0.865
COc1ccc(NC(=O)N(C)C[C@H]2Oc3c(NC(=O)c4ccc(-c5nccs5)cc4)cccc3C(=O)N([C@@H](C)CO)C[C@H]2C)cc1	inactive: 1.02
NNC(=O)c1nnn(-c2nonc2N)c1CN1CCCCC1	inactive: 1.09
C[C@H](CO)N1C[C@H](C)[C@@H](CN(C)S(=O)(=O)c2ccc(Cl)cc2)Oc2c(NC(=O)c3cnccn3)cccc2C1=O	inactive: 1.01
Cc1noc(C)c1NC(=O)N(C)C[C@H]1Oc2c(NC(=O)NC(C)C)cccc2C(=O)N([C@H](C)CO)C[C@@H]1C	inactive: 0.983
OC1CCOCC1	inactive: 0.978
COc1ccc(S(=O)(=O)N[C@@H]2CC[C@H](CC(=O)N3CCN(c4ccccc4)CC3)O[C@@H]2CO)cc1	inactive: 1.03
COC(=O)[C@@H](Cc1ccccc1)N[C@H](/C=C/C1CC1)[C@@H](O)CCn1cc(-c2ccc(C(=O)NO)s2)nn1	inactive: 0.993
CCCNC(=O)c1cc2c(c(-c3cccc(-c4ccc(F)cc4)c3)n1)[C@H](CCO)N([S@@](=O)C(C)(C)C)C2	inactive: 1.01
CC(C)NC(=O)N(C)C[C@H]1Oc2c(NC(=O)NC3CCCCC3)cccc2C(=O)N([C@@H](C)CO)C[C@H]1C	inactive: 0.994
C[C@@H]1CN([C@@H](C)CO)C(=O)c2cccc(NC(=O)Nc3ccccc3)c2O[C@@H]1CN(C)S(=O)(=O)c1cn(C)cn1	inactive: 0.992
COc1ccc(CCNC(=O)[C@@]2(Sc3ccc(C)cc3)CC(=O)N(C3Cc4ccccc4C3)[C@@H]2c2ccc(CO)cc2I)cc1	inactive: 1.01
Cc1noc(C)c1S(=O)(=O)N(C)C[C@H]1OCCCC[C@H](C)Oc2ccc(NC(=O)Nc3ccc(F)cc3)cc2C(=O)N([C@H](C)CO)C[C@@H]1C	inactive: 0.96
COc1ccc(NC(=O)N(C)C[C@H]2Oc3ncc(C#CC(C)C)cc3C(=O)N([C@H](C)CO)C[C@@H]2C)cc1	inactive: 0.985
C[C@H]1CN([C@@H](C)CO)C(=O)c2cc(NC(=O)Cc3cn(C)c4ccccc34)ccc2O[C@H]1CN(C)C(=O)Nc1ccc(C(F)(F)F)cc1	inactive: 1.04
C[C@@H]1CN([C@H](C)CO)C(=O)c2cc(NC(=O)Cc3cn(C)c4ccccc34)ccc2O[C@H]1CN(C)Cc1ccc(-c2ccccc2)cc1	inactive: 1.04
C[C@H](CO)N1C[C@H](C)[C@H](CN(C)S(=O)(=O)c2ccc(C#N)cc2)Oc2ncc(C#Cc3cccc(F)c3)cc2C1=O	inactive: 0.993
Cc1ccc(S(=O)(=O)Nc2ccc3c(c2)C(=O)N([C@H](C)CO)C[C@@H](C)[C@@H](CN(C)S(=O)(=O)c2ccc(F)cc2)O3)cc1	inactive: 1.01
